# Laboratory results: the supplement of paper PMC8728848
# The other results are listed elsewhere or left out.
# B1: MCI4 (Toxoplasma gondii), Q9XZH7 (protein)
# chain: MRASLPVHLVVCTQLSAVWFGVAKAHGGHRLEPHVPGFLQGFTDITPAGDDVSANVTSSEPAKLDLSCVHSDNKGSRAPTIGEPVPDVSLEQCAAQCKAVDGCTHFTYNDDSKMCHVKEGKPDLYDLTGGKTASRSCDRSCFEQHVSYEGAPDVMTAMVTSQSADCQAACAADPSCEIFTYNEHDQKCTFKGRGFSAFKERGVLGVTSGPKQFCDEGGKLTQEEMEDQISGCIQLSDVGSMTADLEEPMEADSVGACMERCRCDGRCTHFTFNDNTRMCYLKGDKMQLYSSPGDRTGPKSCDSSCFSNGVSYVDDPATDVETVFEISHPIYCQVICAANPLCTVFQWYASEAKCVVKRKGFYKHRKTGVTGVTVGPREFCDFGGSIRDREEADAVGSDDGLNAEATMANSPDFHDEVECVHTGNIGSKAQTIGEVKRASSLSECRARCQAEKECSHYTYNVKSGLCYPKRGKPQFYKYLGDMTGSRTCDTSCLRRGVDYSQGPEVGKPWYSTLPTDCQVACDAEDACLVFTWDSATSRCYLIGSGFSAHRRNDVDGVVSGPYTFCDNGENLQVLEAKDTE
# Assays:
# Assay in all cases: glycan array binding signal (z-score within array); higher = stronger binding
# Details in all cases: glycan notation: IUPAC condensed, linker removed
# [1] = molecular target: GlcNAc(b1-6)GalNAc
# Outline: (§1)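 Arrays were curated from the Consortium for Functional Glycomics database, 3228 in total, and kept only where the protein sequence was available. Binding is expressed as a within-array Z-score. This score was averaged across arrays of the same protein sequence at different concentrations or buffers and across linkers, and negative values can be read as non-binding.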
# [2] = molecular target: GlcNAc3Prop(b1-4)GlcNAc
# Outline: as §1
# [3] = molecular target: Kdn(a2-3)Gal(b1-3)GlcNAc
# Outline: as §1
# [4] = molecular target: Kdn(a2-3)Gal(b1-4)GlcNAc
# Outline: as §1
# [5] = molecular target: Man(a1-2)Man(a1-2)Man(a1-3)Man
# Outline: as §1
# [6] = molecular target: Man(a1-2)Man(a1-2)Man(a1-6)[Man(a1-3)]Man
# Outline: as §1
# [7] = molecular target: Man(a1-2)Man(a1-3)Man
# Outline: as §1
# [8] = molecular target: Man(a1-2)Man(a1-3)[Man(a1-2)Man(a1-6)]Man
# Outline: as §1
# [9] = molecular target: Man(a1-2)Man(a1-3)[Man(a1-2)Man(a1-6)]Man(a1-6)[Man(a1-2)Man(a1-2)Man(a1-3)]Man
# Outline: as §1
# [10] = molecular target: Man(a1-2)Man(a1-3)[Man(a1-2)Man(a1-6)]Man(a1-6)[Man(a1-2)Man(a1-2)Man(a1-3)]Man(b1-4)GlcNAc(b1-4)GlcNAc
# Outline: as §1
# [11] = molecular target: Man(a1-2)Man(a1-3)[Man(a1-6)]Man(a1-6)[Man(a1-2)Man(a1-3)]Man(b1-4)GlcNAc(b1-4)GlcNAc
# Outline: as §1
# [12] = molecular target: Man(a1-2)Man(a1-6)[Man(a1-3)]Man(a1-6)[Man(a1-2)Man(a1-2)Man(a1-3)]Man
# Outline: as §1
# [13] = molecular target: Man(a1-2)Man(a1-6)[Man(a1-3)]Man(a1-6)[Man(a1-2)Man(a1-2)Man(a1-3)]Man(b1-4)GlcNAc(b1-4)GlcNAc
# Outline: as §1
# [14] = molecular target: Man(a1-3)[Man(a1-6)]Man
# Outline: as §1
# [15] = molecular target: Man(a1-3)[Man(a1-6)]Man(a1-6)[Man(a1-2)Man(a1-3)]Man(b1-4)GlcNAc(b1-4)GlcNAc
# Outline: as §1
# [16] = molecular target: Man(a1-3)[Man(a1-6)]Man(a1-6)[Man(a1-3)]Man
# Outline: as §1
# [17] = molecular target: Man(a1-3)[Man(a1-6)]Man(a1-6)[Man(a1-3)]Man(b1-4)GlcNAc(b1-4)GlcNAc
# Outline: as §1
# [18] = molecular target: Man(a1-3)[Man(a1-6)]Man(b1-4)GlcNAc(b1-4)GlcNAc
# Outline: as §1
# [19] = molecular target: Man(a1-6)Man
# Outline: as §1
# [20] = molecular target: Man(b1-4)GlcNAc
# Outline: as §1
# [21] = molecular target: Neu5Ac(a2-3)Gal
# Outline: as §1
# [22] = molecular target: Neu5Ac(a2-3)Gal(b1-3)GalNAc
# Outline: as §1
# [23] = molecular target: Neu5Ac(a2-3)Gal(b1-3)GalNAc(b1-3)Gal(a1-4)Gal(b1-4)Glc
# Outline: as §1
# [24] = molecular target: Neu5Ac(a2-3)Gal(b1-3)GalNAc(b1-3)Gal(b1-4)GlcNAc
# Outline: as §1
# [25] = molecular target: Neu5Ac(a2-3)Gal(b1-3)GalNAc(b1-4)[Neu5Ac(a2-3)]Gal(b1-4)Glc
# Outline: as §1
# [26] = molecular target: Neu5Ac(a2-3)Gal(b1-3)GalNAc6S
# Outline: as §1
# [27] = molecular target: Neu5Ac(a2-3)Gal(b1-3)GlcNAc
# Outline: as §1
# [28] = molecular target: Neu5Ac(a2-3)Gal(b1-3)GlcNAc(b1-3)Gal(b1-3)GlcNAc
# Outline: as §1
# [29] = molecular target: Neu5Ac(a2-3)Gal(b1-3)GlcNAc6S
# Outline: as §1
# [30] = molecular target: Neu5Ac(a2-3)Gal(b1-3)[Fuc(a1-4)]GlcNAc
# Outline: as §1
binder,measurement,setting,value
B1,glycan array binding signal (z-score),[1],-0.145
same,glycan array binding signal (z-score),[2],-0.227
same,glycan array binding signal (z-score),[3],-0.206
same,glycan array binding signal (z-score),[4],-0.205
same,glycan array binding signal (z-score),[5],-0.218
same,glycan array binding signal (z-score),[6],-0.213
same,glycan array binding signal (z-score),[7],-0.186
same,glycan array binding signal (z-score),[8],-0.213
same,glycan array binding signal (z-score),[9],-0.202
same,glycan array binding signal (z-score),[10],-0.207
same,glycan array binding signal (z-score),[11],-0.222
same,glycan array binding signal (z-score),[12],-0.216
same,glycan array binding signal (z-score),[13],-0.208
same,glycan array binding signal (z-score),[14],-0.197
same,glycan array binding signal (z-score),[15],-0.213
same,glycan array binding signal (z-score),[16],-0.188
same,glycan array binding signal (z-score),[17],-0.209
same,glycan array binding signal (z-score),[18],-0.208
same,glycan array binding signal (z-score),[19],-0.218
same,glycan array binding signal (z-score),[20],-0.229
same,glycan array binding signal (z-score),[21],-0.221
same,glycan array binding signal (z-score),[22],-0.218
same,glycan array binding signal (z-score),[23],-0.213
same,glycan array binding signal (z-score),[24],-0.203
same,glycan array binding signal (z-score),[25],-0.216
same,glycan array binding signal (z-score),[26],-0.21
same,glycan array binding signal (z-score),[27],-0.209
same,glycan array binding signal (z-score),[28],-0.209
same,glycan array binding signal (z-score),[29],-0.221
same,glycan array binding signal (z-score),[30],-0.215
